Data published in paper PMC4705382.
Results are given in words; binding and its absence hold for the method and conditions named. In cells and extracts the contact can be indirect. Some binding calls cover weakened binding; strength is not graded here. For part of these data: Tags and fused reporters may be left off the sequences shown.

Amino acid sequences for entries named in this document (tags omitted).
UniProt Q62760: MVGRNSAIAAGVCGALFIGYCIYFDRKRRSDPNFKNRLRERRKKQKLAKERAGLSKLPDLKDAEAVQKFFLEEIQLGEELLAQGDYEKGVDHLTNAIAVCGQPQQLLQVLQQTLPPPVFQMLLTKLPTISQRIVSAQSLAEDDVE

Assays:
Experiment in all cases: co-IP; native co-IP from brain homogenate of transgenic rats expressing human DISC1; lysis buffer with 1.5% Triton X-100, 1% BSA, antibodies overnight, protein A beads
[1] = biological target: TOM20 (translocase of the outer membrane of 20 kDa), rat brain (rat (endogenous in brain)) (UniProt Q62760)
[2] = biological target: T1, Mitofusin1 (rat brain) (rat (endogenous in brain)) (UniProt Q8R4Z9)
T1 sequence: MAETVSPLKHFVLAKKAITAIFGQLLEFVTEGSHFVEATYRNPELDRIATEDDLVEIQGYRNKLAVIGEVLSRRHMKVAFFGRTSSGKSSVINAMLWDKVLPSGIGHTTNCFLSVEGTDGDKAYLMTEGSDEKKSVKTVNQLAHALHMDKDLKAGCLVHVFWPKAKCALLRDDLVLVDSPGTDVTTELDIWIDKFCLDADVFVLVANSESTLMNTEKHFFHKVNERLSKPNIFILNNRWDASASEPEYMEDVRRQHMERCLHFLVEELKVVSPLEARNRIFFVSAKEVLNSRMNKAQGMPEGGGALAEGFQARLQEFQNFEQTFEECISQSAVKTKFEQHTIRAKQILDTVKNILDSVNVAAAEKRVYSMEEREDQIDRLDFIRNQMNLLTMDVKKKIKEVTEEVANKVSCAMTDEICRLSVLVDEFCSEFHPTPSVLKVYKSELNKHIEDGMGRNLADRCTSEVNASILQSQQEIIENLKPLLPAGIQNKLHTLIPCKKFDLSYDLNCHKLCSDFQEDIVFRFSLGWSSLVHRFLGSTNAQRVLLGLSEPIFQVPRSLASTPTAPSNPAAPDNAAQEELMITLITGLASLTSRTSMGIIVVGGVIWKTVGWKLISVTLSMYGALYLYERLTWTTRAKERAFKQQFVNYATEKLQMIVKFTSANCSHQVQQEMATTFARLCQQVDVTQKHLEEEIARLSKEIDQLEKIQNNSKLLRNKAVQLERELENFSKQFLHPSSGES

[3] = biological target: T2, TRAK2 (rat brain) (rat (endogenous in brain)) (UniProt Q8R2H7)
T2 sequence: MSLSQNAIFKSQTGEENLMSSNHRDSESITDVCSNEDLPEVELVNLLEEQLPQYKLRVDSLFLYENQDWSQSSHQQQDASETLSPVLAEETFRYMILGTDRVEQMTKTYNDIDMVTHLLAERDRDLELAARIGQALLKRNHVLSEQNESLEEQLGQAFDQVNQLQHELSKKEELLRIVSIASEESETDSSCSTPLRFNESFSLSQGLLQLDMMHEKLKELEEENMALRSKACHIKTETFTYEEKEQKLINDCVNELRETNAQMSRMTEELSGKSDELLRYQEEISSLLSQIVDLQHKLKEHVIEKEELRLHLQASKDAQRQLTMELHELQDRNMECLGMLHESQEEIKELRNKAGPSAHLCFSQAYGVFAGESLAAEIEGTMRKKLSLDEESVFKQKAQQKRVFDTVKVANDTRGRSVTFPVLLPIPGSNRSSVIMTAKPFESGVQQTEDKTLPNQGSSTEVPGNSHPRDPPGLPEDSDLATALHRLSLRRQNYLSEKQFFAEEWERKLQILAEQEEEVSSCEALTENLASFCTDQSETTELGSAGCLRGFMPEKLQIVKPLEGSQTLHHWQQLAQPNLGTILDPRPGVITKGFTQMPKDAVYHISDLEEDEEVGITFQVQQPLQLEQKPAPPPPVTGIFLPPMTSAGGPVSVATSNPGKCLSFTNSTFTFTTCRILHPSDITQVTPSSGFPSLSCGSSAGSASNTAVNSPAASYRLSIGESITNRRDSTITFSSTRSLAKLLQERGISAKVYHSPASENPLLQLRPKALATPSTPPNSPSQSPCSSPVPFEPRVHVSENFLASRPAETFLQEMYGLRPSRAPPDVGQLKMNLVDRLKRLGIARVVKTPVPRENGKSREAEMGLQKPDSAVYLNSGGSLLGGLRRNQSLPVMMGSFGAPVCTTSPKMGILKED

binding [1]: no binding
binding [2]: binds
binding [3]: binds
B1: full-length, non-mutant, human DISC1 (transgenic rat brain) (protein, UniProt Q9NRI5 1-854)
chain: MPGGGPQGAPAAAGGGGVSHRAGSRDCLPPAACFRRRRLARRPGYMRSSTGPGIGFLSPAVGTLFRFPGGVSGEESHHSESRARQCGLDSRGLLVRSPVSKSAAAPTVTSVRGTSAHFGIQLRGGTRLPDRLSWPCGPGSAGWQQEFAAMDSSETLDASWEAACSDGARRVRAAGSLPSAELSSNSCSPGCGPEVPPTPPGSHSAFTSSFSFIRLSLGSAGERGEAEGCPPSREAESHCQSPQEMGAKAASLDGPHEDPRCLSRPFSLLATRVSADLAQAARNSSRPERDMHSLPDMDPGSSSSLDPSLAGCGGDGSSGSGDAHSWDTLLRKWEPVLRDCLLRNRRQMEVISLRLKLQKLQEDAVENDDYDKAETLQQRLEDLEQEKISLHFQLPSRQPALSSFLGHLAAQVQAALRRGATQQASGDDTHTPLRMEPRLLEPTAQDSLHVSITRRDWLLQEKQQLQKEIEALQARMFVLEAKDQQLRREIEEQEQQLQWQGCDLTPLVGQLSLGQLQEVSKALQDTLASAGQIPFHAEPPETIRSLQERIKSLNLSLKEITTKVCMSEKFCSTLRKKVNDIETQLPALLEAKMHAISGNHFWTAKDLTEEIRSLTSEREGLEGLLSKLLVLSSRNVKKLGSVKEDYNRLRREVEHQETAYETSVKENTMKYMETLKNKLCSCKCPLLGKVWEADLEACRLLIQSLQLQEARGSLSVEDERQMDDLEGAAPPIPPRLHSEDKRKTPLKVLEEWKTHLIPSLHCAGGEQKEESYILSAELGEKCEDIGKKLLYLEDQLHTAIHSHDEDLIQSLRRELQMVKETLQAMILQLQPAKEAGEREAAASCMTAGVHEAQA
